Drawing on paper PMC10668032, this text covers binding signal for 172 sequences.

This is one part of the list. At the low end of the ranking the order means little.

The target of this assay is SIX1 homeodomain (reference allele) (UniProt Q15475). Nature of the assay: universal protein binding microarray. Conditions: Universal all-10-mer PBM (8x60K, AMADID 030236), 300 nM GST-tagged protein, Alexa Fluor 488 anti-GST; buffer, salt, pH and temperature not stated; high values mean tight binding; most listed sequences are background and not binding sites; double strand, one strand shown.
On to ACTAGGCA, for which the binding signal is -0.256 E-score.

CACACGAG: the binding signal is -0.0542 E-score.

For GCGCCCGC, the binding signal was -0.139 E-score.

Take ATTACACG: the binding signal amounted to 0.0504 E-score.

TGAAAAAA: the binding signal is -0.114 E-score.

With GAAGCATA, the binding signal was -0.0666 E-score.

Regarding AGGGAAAA, the binding signal was -0.292 E-score.

For CCCGCACG, the binding signal is -0.0165 E-score.

With TACATGGA, the binding signal was 0.0595 E-score.

In the case of CCCTGAAC, the binding signal amounted to 0.0887 E-score.

Turning to ACCGCTCG, the binding signal is -0.0716 E-score.

Turning to CCGGTGAA, the binding signal is -0.06 E-score.

Consider CAATTTGC, for which the binding signal was -0.274 E-score.

As to GAGTTTGC, the binding signal is -0.24 E-score.

Consider ACTCCGTA, for which the binding signal was -0.188 E-score.

Take AAATATTT: the binding signal is -0.298 E-score.

Consider ACAGCCGT, for which the binding signal was -0.0851 E-score.

Consider CCCACGCC, for which the binding signal came out at 0.0266 E-score.

On to ATTGCGTC, for which the binding signal amounted to 0.103 E-score.

Regarding CGAATAGA, the binding signal was -0.013 E-score.

On to CATGACAA, for which the binding signal was -0.0593 E-score.

As for AGTCAGAG, the binding signal is -0.108 E-score.

With AAACAGGG, the binding signal was -0.187 E-score.

Regarding CAACGGCC, the binding signal is -0.184 E-score.

Consider AATCGATG, for which the binding signal came out at 0.0645 E-score.

For GACGTACA, the binding signal was -0.261 E-score.

Consider CGGGCTCA, for which the binding signal came to 0.2 E-score.

Consider ACACTGGA, for which the binding signal amounted to 0.0621 E-score.

As for AACCGGAA, the binding signal was -0.121 E-score.

In the case of TCCAAAGA, the binding signal is -0.0955 E-score.

With CAGATGAA, the binding signal is -0.154 E-score.

In the case of GGTATGAC, the binding signal was determined as 0.0985 E-score.

As to ATGAACCG, the binding signal is -0.0565 E-score.

Take ATATACGC: the binding signal is 0.244 E-score.

For GATAAATC, the binding signal is 0.0669 E-score.

With GCATATCA, the binding signal came to 0.449 E-score.

For the sequence AAACGCGG, the binding signal is -0.0723 E-score.

Take CCTAAGCG: the binding signal was -0.0557 E-score.

For the sequence GATAGTCA, the binding signal was 0.189 E-score.

Regarding CGAGAGGC, the binding signal was -0.244 E-score.

In the case of CTCCAAAG, the binding signal is -0.137 E-score.

For the sequence AAGTGGGG, the binding signal was 0.0277 E-score.

Consider AGGCAGTG, for which the binding signal is -0.0501 E-score.

With CAGCAGTC, the binding signal was -0.196 E-score.

Regarding CAGAATTA, the binding signal is -0.13 E-score.

Take GCAGGGAC: the binding signal was -0.274 E-score.

On to TGTGTAAA, for which the binding signal is -0.0643 E-score.

For CTTCGTTC, the binding signal is -0.263 E-score.

With GCGCGAGC, the binding signal was -0.174 E-score.

With GTAGTTCA, the binding signal was -0.182 E-score.

As to GAGACCGC, the binding signal is -0.063 E-score.

For the sequence ACTGCCTG, the binding signal was -0.0571 E-score.

In the case of CAGTCCTA, the binding signal was -0.047 E-score.

On to ATGTCTAG, for which the binding signal is -0.0916 E-score.

With CTGGGCCC, the binding signal is -0.151 E-score.

CCAGTTAG: the binding signal is -0.0757 E-score.

Take AAGCCGGG: the binding signal was 0.0364 E-score.

As for CCTAAACC, the binding signal was -0.01 E-score.

In the case of ACTACAAA, the binding signal came out at 0.0539 E-score.

Take GTTAGACA: the binding signal stood at 0.0126 E-score.

For ATGAGAGA, the binding signal is 0.0474 E-score.

CCGGTCAC: the binding signal is -0.0592 E-score.

For the sequence AAAAGCTG, the binding signal is -0.233 E-score.

In the case of CTACAACC, the binding signal was -0.205 E-score.

Take CTAGAAGA: the binding signal worked out at 0.115 E-score.

Take GTGCTAAA: the binding signal is -0.202 E-score.

For CTATCGTA, the binding signal is 0.266 E-score.

As for CCGTCCCC, the binding signal is -0.0726 E-score.

Consider GCCGTAGA, for which the binding signal is -0.00802 E-score.

As for AGGTGGGA, the binding signal was -0.0676 E-score.

As to CAGCGCTG, the binding signal was -0.216 E-score.

As for GCACACAA, the binding signal is -0.2 E-score.

CAGGACGG: the binding signal was -0.0904 E-score.

With CGCACTTA, the binding signal was -0.182 E-score.

On to GTATCTTA, for which the binding signal came out at 0.312 E-score.

Regarding TCCTATAA, the binding signal was -0.00245 E-score.

As to AAGCAAGC, the binding signal is -0.4 E-score.

For CTATGAGC, the binding signal is -0.131 E-score.

As for GGCGGGCA, the binding signal is -0.0717 E-score.

As to CAGAAGCG, the binding signal is -0.0128 E-score.

AGGGCCAC: the binding signal is -0.417 E-score.

Regarding GGGTTCAC, the binding signal is 0.127 E-score.

As for AGTCAACC, the binding signal is -0.123 E-score.

Regarding CAGAGATA, the binding signal is 0.27 E-score.

As for ACTCACGC, the binding signal is -0.203 E-score.

As to CCTACCAG, the binding signal is -0.139 E-score.

As for ATCGGCAC, the binding signal stood at 0.23 E-score.

Regarding GAGACCGA, the binding signal turned out to be 0.128 E-score.

AGCCCCAT: the binding signal is -0.0405 E-score.

In the case of AGAAGTAG, the binding signal was -0.13 E-score.

Consider ATATCTTC, for which the binding signal was determined as 0.365 E-score.

For TCGCGAGA, the binding signal amounted to 0.0699 E-score.

On to AATCCCCT, for which the binding signal is 0.216 E-score.

On to AGGAAGAG, for which the binding signal was -0.0717 E-score.

With ATCCTAAA, the binding signal is 0.184 E-score.

Regarding GGCCTCGA, the binding signal is -0.215 E-score.

For AATAGATA, the binding signal was 0.253 E-score.

Consider ATCGTTGC, for which the binding signal was 0.202 E-score.

As to ATGCTATA, the binding signal was found to be 0.0549 E-score.

For CGCGGGTA, the binding signal is 0.142 E-score.

As to ATGAGAAC, the binding signal was determined as 0.131 E-score.

With AAGACGGT, the binding signal is -0.0248 E-score.

As to TCCTACGA, the binding signal was -0.0614 E-score.

For the sequence GCGGAATA, the binding signal was determined as 0.0364 E-score.

AAGGTGGG: the binding signal is -0.265 E-score.

As for AATGTTGC, the binding signal is -0.15 E-score.

With CACTACCA, the binding signal was -0.0578 E-score.

As for AACCACCT, the binding signal is -0.134 E-score.

Turning to ATACTACC, the binding signal came out at 0.23 E-score.

Regarding ACATCTCC, the binding signal amounted to 0.101 E-score.

In the case of GGTCAGAC, the binding signal was -0.225 E-score.

In the case of TTCTACAA, the binding signal was -0.0467 E-score.

For ACCCGCAC, the binding signal amounted to 0.0488 E-score.

Consider AGAGGCTC, for which the binding signal was -0.11 E-score.

Turning to ACAGTGGC, the binding signal is -0.174 E-score.

Turning to ATCGCAGA, the binding signal came out at 0.203 E-score.

For the sequence ATGTCCAA, the binding signal is -0.0384 E-score.

As for AAAGAACG, the binding signal was -0.181 E-score.

As for GATCCTAA, the binding signal is 0.262 E-score.

CTTCTGCC: the binding signal was -0.134 E-score.

For ATAACATG, the binding signal is -0.05 E-score.

With CGTATTAA, the binding signal was found to be 0.222 E-score.

For ACAAGGAG, the binding signal was 0.0908 E-score.

On to AACTACGA, for which the binding signal was -0.0463 E-score.

Take ACATTTTG: the binding signal was -0.156 E-score.

In the case of GTACCTGA, the binding signal was found to be 0.138 E-score.

Consider ATGTCGGC, for which the binding signal is -0.131 E-score.

As for GATCACTA, the binding signal was 0.371 E-score.

For the sequence AAGGAGCA, the binding signal is -0.137 E-score.

Take TGTTCGAA: the binding signal is -0.114 E-score.

As for ACGAGATC, the binding signal worked out at 0.26 E-score.

Take AGAGGACC: the binding signal was -0.272 E-score.

For AAACCCTA, the binding signal was 0.0456 E-score.

As to CATTCACC, the binding signal was -0.18 E-score.

GAAACGGC: the binding signal is -0.139 E-score.

For the sequence ACAACTCG, the binding signal is -0.0796 E-score.

As for ATACTCAA, the binding signal was 0.274 E-score.

As to CAACTTTC, the binding signal was -0.259 E-score.

In the case of AAAAGGTT, the binding signal was -0.123 E-score.

On to AAACAGCG, for which the binding signal is -0.113 E-score.

With AACTATGA, the binding signal worked out at 0.00686 E-score.

For the sequence CCTCAGGA, the binding signal came out at 0.0598 E-score.

Regarding CATACAAG, the binding signal was determined as 0.0377 E-score.

Take CCTGAATA: the binding signal was 0.0703 E-score.

As to CGCGTCAC, the binding signal is -0.194 E-score.

For GATACGAA, the binding signal was found to be 0.335 E-score.

With TCCAACCA, the binding signal was 0.0228 E-score.

Consider ACGTGGAG, for which the binding signal is -0.114 E-score.

For the sequence GCAGACCA, the binding signal was -0.234 E-score.

Turning to TCGTCACA, the binding signal came to 0.0764 E-score.

Take AGTGGAAA: the binding signal was -0.245 E-score.

In the case of AAGAGCTA, the binding signal was -0.0769 E-score.

Consider TCTCTCCA, for which the binding signal worked out at 0.0854 E-score.

In the case of AGTAATCC, the binding signal came to 0.126 E-score.

With ATTGCATG, the binding signal was 0.156 E-score.

Take ACTAGAGA: the binding signal was 0.00715 E-score.

Take TATTATAA: the binding signal is 0.0629 E-score.

Take ATTGACCC: the binding signal is 0.155 E-score.

Regarding CCTCGTAA, the binding signal was -0.145 E-score.

Turning to AGCCGCAC, the binding signal was -0.0287 E-score.

On to CAACTCAG, for which the binding signal was -0.0971 E-score.

With TGGTTTAA, the binding signal was -0.0477 E-score.

With GGAGCGGA, the binding signal is 0.06 E-score.

As to GCGCTTTA, the binding signal is -0.13 E-score.

ACAGGTCC: the binding signal is -0.125 E-score.

GAGGATCC: the binding signal came to 0.366 E-score.

On to AAGGATGG, for which the binding signal stood at 0.00539 E-score.

In the case of CGAAGTCC, the binding signal was -0.326 E-score.

As to GCGAGAAC, the binding signal was -0.158 E-score.

Take CCGAGCTA: the binding signal was -0.0515 E-score.

On to CAGGTTCC, for which the binding signal is -0.253 E-score.

On to CGGCAGTA, for which the binding signal amounted to 0.00713 E-score.
